# Results taken from the BET-seq Pho4 binding data (Le et al. 2018).
# Some of the results follow. Values were computed here from the reads of four pooled replicates and scatter widely.
# Target: T1, Pho4 (S. cerevisiae) (UniProt P07270)
# T1 sequence: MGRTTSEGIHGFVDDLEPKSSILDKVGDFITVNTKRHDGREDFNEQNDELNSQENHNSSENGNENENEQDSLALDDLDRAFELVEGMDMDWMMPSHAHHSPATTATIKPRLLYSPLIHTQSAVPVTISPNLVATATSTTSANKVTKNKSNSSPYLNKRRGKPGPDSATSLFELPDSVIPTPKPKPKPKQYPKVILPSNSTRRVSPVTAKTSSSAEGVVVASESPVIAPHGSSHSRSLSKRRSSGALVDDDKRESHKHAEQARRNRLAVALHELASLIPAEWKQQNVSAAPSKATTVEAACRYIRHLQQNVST
# Assay: relative binding free energy (BET-seq); higher = weaker binding
# Conditions: reference: library average
row,Sequence,relative binding free energy [kcal/mol]
1,TAGTGCACGTGGTTTG,-0.03
2,GTATGCACGTGTTGTA,-0.07
3,AGGGGCACGTGGCCTT,-0.29
4,ATGTACACGTGAGAGG,0.3
5,ATGTTCACGTGGCTGC,0.19
6,TTGTTCACGTGGTGTC,0.23
7,AGGGCCACGTGTGGCG,-0.03
8,GGAAGCACGTGAGTGT,-0.06
9,TACTTCACGTGAGAGT,0.41
10,TTCTTCACGTGTTACT,0.26
11,AGGAACACGTGAAGTG,0.25
12,ATAGTCACGTGGGTGC,-0.15
13,TGGATCACGTGTTAGT,0.17
14,GAATGCACGTGGTCGT,-0.07
15,ATTTTCACGTGCTTAG,0.27
16,TGGCGCACGTGAGTGT,0
17,AAGTGCACGTGGTGGG,0.03
18,ATGCGCACGTGTGATT,-0.04
19,TATTTCACGTGCTAGA,0.28
20,AGAAGCACGTGGAGTG,-0.04
21,ATCGTCACGTGAGGTG,0.28
22,GGGCTCACGTGAGGTT,0.43
23,TGTCTCACGTGTCTGG,0.12

row,Sequence,relative binding free energy [kcal/mol]
1,TGGTTCACGTGGAGCC,0.43
2,ATGGGCACGTGTTAGC,-0.11
3,GGGGGCACGTGTGTCA,0.02
4,GCTTGCACGTGTTTAG,0.09
5,TGTGGCACGTGTAATG,0
6,ATCGGCACGTGGGTCT,-0.1
7,TTGTCCACGTGGTCGG,-0.07
8,ATTGGCACGTGAGTCA,0.03
9,GTTGGCACGTGCCTGT,-0.18
10,TGTGTCACGTGGGGGA,-0.06
11,CTTTTCACGTGAAGTG,0.33
12,AATGGCACGTGGTTGG,-0.09
13,GATTTCACGTGGCGGA,0.3
14,TTGTTCACGTGTACGG,0.26
15,TAGAGCACGTGGGGGC,-0.21
16,GTGTTCACGTGGCATG,0.16
17,TTCATCACGTGTTTTC,0.2
18,GAGGGCACGTGATGTT,0.11
19,TCCGTCACGTGTGGAT,0.21
20,TTATACACGTGCAGTT,-0.02
21,TAATGCACGTGTAAAG,0.05
22,AATTACACGTGGTGTC,0.08
23,GATGGCACGTGAGGAA,0.23

row,Sequence,relative binding free energy [kcal/mol]
1,GTGGTCACGTGTTCTT,0.2
2,TGAAGCACGTGTGAGG,-0.01
3,AGATACACGTGTGCTG,0.09
4,AAGGTCACGTGATGGT,0.18
5,TGTTTCACGTGCGCAG,0.15
6,CATTGCACGTGTGGGT,-0.02
7,ATGGACACGTGAGAGT,0.13
8,CTTGTCACGTGCGTGT,-0.09
9,AGAATCACGTGGGGAT,0.06
10,GGTAGCACGTGGTAAG,-0.18
11,AGTGACACGTGATTAG,0.09
12,GGCGACACGTGATTTG,0.22
13,AGCAGCACGTGGTTTG,-0.04
14,GAGCACACGTGGGGTG,-0.13
15,GTTTCCACGTGGTAGG,0.05
16,GTGGCCACGTGAAGGA,0.38
17,GGTACCACGTGTAGTG,0.06
18,AATGTCACGTGTAGCG,0.12
19,GTTATCACGTGTATCA,0.21
20,AGCAACACGTGGGTTT,0
21,TAGGGCACGTGAGGAA,0.11
22,ATGGCCACGTGTGTAG,0.05
23,GGATGCACGTGAAATG,0.27

row,Sequence,relative binding free energy [kcal/mol]
1,GGAGCCACGTGTGTGT,-0.06
2,AGCCGCACGTGGGGGG,-0.29
3,TTTAACACGTGGGCGT,-0.17
4,TTCGGCACGTGAGAGT,0.24
5,GAGGGCACGTGGAGGA,-0.04
6,ATGGGCACGTGTGGGG,0.01
7,GCTTCCACGTGTGTGT,0.01
8,ATGAGCACGTGGATTT,-0.01
9,GTAGGCACGTGTAAGA,0.15
10,ATGGTCACGTGGGATA,-0.09
11,TCTGTCACGTGGTTCA,0.02
12,CGAAGCACGTGGTAGT,-0.04
13,GTATACACGTGTAGAG,0.1
14,ATATTCACGTGGGTAG,0.11
15,GATTACACGTGAGTGG,0.33
16,GTGCTCACGTGAGGGT,0.33
17,GTTGCCACGTGCGGGC,-0.02
18,ATTTACACGTGGGAGA,0.19
19,TGGGTCACGTGGCTGT,0.02
20,TGGACCACGTGTGATG,0.02
21,TGTGGCACGTGGGCCC,-0.17
22,TGTTCCACGTGTGTGG,0.03
23,TAGAACACGTGTTTGT,0.03

row,Sequence,relative binding free energy [kcal/mol]
1,GTTGACACGTGCTAGG,-0.08
2,AAGATCACGTGTGTAA,0.24
3,ATTCTCACGTGAGAGG,0.3
4,TATTGCACGTGGTGCA,-0.08
5,GAAGGCACGTGCGGGG,-0.22
6,ATTGACACGTGTGGAG,-0.03
7,AATGTCACGTGGGTCT,0.03
8,GGTTACACGTGCCTGG,0.05
9,TCGGGCACGTGACTTT,0.12
10,AGTTGCACGTGCATTA,-0.08
11,GTAAGCACGTGTCGTG,-0.06
12,AATGGCACGTGCGTGA,-0.18
13,AGCAGCACGTGGGAGG,-0.26
14,GTTGCCACGTGGGTGA,-0.17
15,GGAGACACGTGGGTAA,-0.01
16,TGTGTCACGTGCGTTG,-0.05
17,TTAGTCACGTGCAGTG,0.12
18,CCTGGCACGTGGTATT,-0.15
19,TGCTCCACGTGTGTTT,-0.03
20,CTATGCACGTGGTAGG,-0.23
21,GTTAGCACGTGTGCGT,-0.08
22,GGGGGCACGTGACAAG,-0.18
23,AAGTTCACGTGTACGG,0.25
